Measured values as given in the supplement of paper PMC3334620.
Whole data set: some 33,000 sequences, median “E-score (-0.5 to 0.5)” near -0.054, cut for the highest 2% near 0.35. The list shows a part of the results.

What follows are sequences tested against T1, Stb5 (UniProt P38699) (assay: PBM E-score (8-mer binding enrichment) (E-score (-0.5 to 0.5)); higher = stronger / more preferred TF binding; most listed sequences are background and not binding sites). Conditions: protein concentration: 200 nM; construct: GST-full length.
T1 sequence: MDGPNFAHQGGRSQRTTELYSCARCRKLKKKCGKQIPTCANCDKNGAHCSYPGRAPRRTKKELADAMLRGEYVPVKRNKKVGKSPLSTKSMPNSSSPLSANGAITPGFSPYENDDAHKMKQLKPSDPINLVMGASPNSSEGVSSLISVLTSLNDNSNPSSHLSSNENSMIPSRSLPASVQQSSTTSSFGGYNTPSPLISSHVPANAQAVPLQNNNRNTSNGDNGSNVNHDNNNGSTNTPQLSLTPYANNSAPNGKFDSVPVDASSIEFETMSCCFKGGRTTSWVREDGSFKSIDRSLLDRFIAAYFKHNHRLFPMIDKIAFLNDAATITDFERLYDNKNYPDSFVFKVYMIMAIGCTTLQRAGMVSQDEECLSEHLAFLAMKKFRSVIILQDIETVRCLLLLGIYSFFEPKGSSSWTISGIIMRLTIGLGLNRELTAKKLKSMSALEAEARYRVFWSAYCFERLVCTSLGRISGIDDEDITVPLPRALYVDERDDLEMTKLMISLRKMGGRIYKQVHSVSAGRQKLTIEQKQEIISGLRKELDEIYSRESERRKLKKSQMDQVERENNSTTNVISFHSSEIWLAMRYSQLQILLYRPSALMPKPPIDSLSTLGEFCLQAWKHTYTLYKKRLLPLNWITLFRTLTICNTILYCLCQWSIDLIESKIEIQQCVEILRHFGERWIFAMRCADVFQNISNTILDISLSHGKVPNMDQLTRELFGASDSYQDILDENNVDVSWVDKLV
Experimental: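 Universal 'all 10-mer' protein binding microarrays (Agilent AMADID 015681) probed with GST-tagged S. cerevisiae TFs (full-length or DBD) made by in vitro transcription/translation (PURExpress), about 100-200 nM. Bound TF was detected with fluorescent anti-GST. Each ungapped 8-mer (which stands for itself and its reverse complement) is scored by the PBM enrichment score (E-score), a modified Wilcoxon-Mann-Whitney statistic from -0.5 to +0.5, computed with the Universal PBM Analysis Suite. Scale: above 0.35 generally sequence-specific binding.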

Row | Sequence | PBM E-score
1 | CCGAAACA | 0.131
2 | ATTCCTCA | -0.185
3 | ACACGTCA | -0.207
4 | CTATCAGC | 0.0418
5 | CCATTGAA | -0.202
6 | GGATCGTA | -0.0681
7 | GTCGGCTA | 0.142
8 | GAGGGATA | -0.119
9 | CTAACCCC | 0.35
10 | GGATCTAA | 0.306
11 | CGCTTACG | 0.123
12 | ATTACGTG | -0.159
13 | ACACTCCA | -0.225
14 | AAATCTCT | -0.219
15 | GTAACTAC | 0.109
16 | CGACAGAC | -0.0246
17 | CGGAGGCA | 0.25
18 | AGGTACAA | -0.28
19 | CGAAGCCA | -0.199
20 | ATTCCGAC | 0.254
21 | GCGCCTTA | 0.0498
22 | AACCACAA | -0.0375
23 | AGCAATTA | -0.0401
24 | AATGACTG | -0.262
25 | AACTGAGG | -0.317

Row | Sequence | PBM E-score
26 | GGTGAACA | -0.192
27 | ACGCAATC | -0.00211
28 | ACGTTCCA | 0.0356
29 | AACTAGGT | 0.116
30 | CCTGGACG | -0.0351
31 | CTTGGCTA | -0.364
32 | CCACCCTC | -0.0697
33 | CCCAGGAA | -0.286
34 | ACGTTGCA | -0.249
35 | GAAGACGA | -0.0433
36 | ATTCGAAT | -0.0708
37 | ATGCCGAA | 0.255
38 | AGTGGACG | -0.012
39 | ACTATTTG | 0.00075
40 | GACCCCGC | 0.391
41 | AACCTGTA | -0.133
42 | AAGTCTAT | -0.164
43 | CATTTGGG | 0.0668
44 | CAAAGGAA | -0.195
45 | CGCTATTA | 0.357
46 | AGGTATCG | 0.11
47 | CTGGGGTC | -0.163
48 | GACATCTC | -0.0802
49 | AAGAGGTA | 0.191
50 | TATGCGAA | -0.048

Row | Sequence | PBM E-score
51 | CGTTGTAG | -0.0209
52 | AACGCTTA | -0.178
53 | CTTAGGCA | -0.165
54 | ACCGTCAC | 0.223
55 | ACCTGCTC | -0.0755
56 | CCCCACTC | -0.0524
57 | AGCTGGCG | 0.0815
58 | TAGAGTGA | -0.0586
59 | CATGTAAC | 0.00619
60 | AGACTAAT | 0.0139
61 | ACCAGATA | -0.0521
62 | CACCAATA | -0.00716
63 | GCAATTCA | 0.0191
64 | GAGCCGTA | 0.015
65 | CGCACGTC | 0.131
66 | AAAAACAG | -0.202
67 | AGGCAAAT | 0.048
68 | AGCAATAA | -0.216
69 | GACTTGCA | 0.0764
70 | AACGGAAC | 0.18
71 | ATGCATGC | -0.0833
72 | TCGACCCA | -0.256
73 | AGATCGCT | -0.0278
74 | CTCGCTAA | 0.106
75 | ATTCAAAT | -0.195

Row | Sequence | PBM E-score
76 | ATTACGGG | 0.157
77 | AGTTGTAT | -0.0451
78 | TAAGATCA | -0.176
79 | GAATATGC | 0.225
80 | GCAAGCCA | -0.233
81 | GAGCGTTA | -0.0174
82 | CTACGGAC | 0.252
83 | GATACGGA | 0.243
84 | ATTGGCAC | -0.242
85 | AGACACCA | -0.13
86 | CCTGTTGA | -0.0723
87 | AGAGTACA | -0.0908
88 | ACCCCGCA | 0.382
89 | ATTCTCTG | -0.214
90 | AGTTATCA | -0.044
91 | CGCCTCCG | 0.15
92 | GAGCTATA | 0.0873
93 | AGAACTAT | -0.0201
94 | TGTATCAA | -0.0244
95 | ACCCGAGC | 0.0806
96 | GCCAGACA | -0.0977
97 | AGTGCTGG | -0.245
98 | ATACCGGG | 0.332
99 | CTACTGAC | -0.111
100 | GGTGTCAC | 0.23

Row | Sequence | PBM E-score
101 | AGGCGAGG | -0.296
102 | ACAAACTG | -0.197
103 | ATGTTATC | 0.114
104 | CGGGAAGA | 0.207
105 | AGCTTACG | -0.00012
106 | CCCACCTC | -0.103
107 | GAGACAGC | -0.026
108 | GCCGCTGA | 0.138
109 | AATGCTGA | -0.277
110 | GTATAAGA | 0.0123
111 | GACCCTCA | -0.169
112 | ATATACGC | 0.156
113 | CGAAGTCC | 0.238
114 | TGCCCGCA | 0.0902
115 | CGGAGACG | 0.166
116 | CGCCACTA | 0.0725
117 | CGAACTGA | -0.184
118 | GAACTCCA | -0.201
119 | TCCACAGA | -0.209
120 | CGCCTAAG | 0.136
121 | ATCGTGCG | 0.0143
122 | CCAAGTCG | -0.105
123 | GCAGATAA | -0.077
124 | AATTATGA | 0.168
125 | CAGAGAAG | -0.183

Row | Sequence | PBM E-score
126 | GGAATAGA | -0.0516
127 | AAGGGTAT | 0.0975
128 | GAAGTTGA | -0.0652
129 | CGACCGAA | 0.122
130 | AGATCTAA | -0.128
131 | AGAGTGCG | -0.00597
132 | GCCCGTAA | 0.165
133 | ACGAGAGT | -0.125
134 | CAATCGAC | -0.198
135 | AGGTTTCC | -0.302
136 | AAAGCTGA | -0.0776
137 | AGCTTAGC | -0.0499
138 | GTTATTTA | 0.14
139 | ATGAATAG | 0.0375
140 | AGAGGAAC | -0.176
141 | CTCCTCCA | -0.19
142 | GTGAAAAA | 0.0826
143 | CCCTTAGG | -0.26
144 | AGCGTTAG | 0.0119
145 | ATGAACAG | -0.141
146 | ACTGACAG | -0.138
147 | CAGGCGTC | -0.0392
148 | CCATAATC | -0.146
149 | AGGCTGAC | -0.287
150 | ATGCCGTG | 0.144

Row | Sequence | PBM E-score
151 | AAGCTAGC | -0.0562
152 | ATGCCGAC | 0.386
153 | GCCGCCGC | 0.391
154 | ACCTCTCA | -0.171
155 | ATGGGGAC | -0.0962
156 | CTACTAAC | -0.105
157 | CAAAGACG | 0.0984
158 | AACGCCAC | -0.0588
159 | CATGATTA | -0.086
160 | ACTACCCG | 0.0662
161 | AAAGCAGC | -0.0282
162 | CTCATCGA | -0.281
163 | CAAGACAG | -0.264
164 | CAGCAATG | -0.255
165 | AGACGGTG | 0.296
166 | CTACCTTC | -0.072
167 | ACGAGTTC | -0.121
168 | CCCAGCGA | -0.285
169 | ACACAGAT | -0.266
170 | GGCCAACA | -0.0714
171 | GCGGATCC | 0.0794
172 | CCACAAGG | -0.161
